Reference: the BET-seq Pho4 binding data (Le et al. 2018)
Some of the results follow. Values were computed here from the reads of four pooled replicates and scatter widely.

biological target: T1, Pho4 (S. cerevisiae) (UniProt P07270); assay: relative binding free energy (BET-seq); higher = weaker binding; conditions: reference: library average
T1 sequence: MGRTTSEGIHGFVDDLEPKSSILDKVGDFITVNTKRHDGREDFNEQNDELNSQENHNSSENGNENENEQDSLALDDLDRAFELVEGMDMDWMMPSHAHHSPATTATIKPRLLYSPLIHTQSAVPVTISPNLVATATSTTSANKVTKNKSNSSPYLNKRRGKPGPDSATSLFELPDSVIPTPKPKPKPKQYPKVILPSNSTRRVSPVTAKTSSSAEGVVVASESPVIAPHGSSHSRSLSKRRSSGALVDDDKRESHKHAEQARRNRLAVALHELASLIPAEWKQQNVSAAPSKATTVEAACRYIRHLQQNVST

Sequence | relative binding free energy [kcal/mol]
TACATCACGTGGGGAT | 0.02
TATGGCACGTGTTTGC | -0.11
TGAAACACGTGGTTGG | -0.01
TAAGGCACGTGTGTAA | -0.12
AAAGACACGTGGATGG | 0
TTGGGCACGTGAGCGC | -0.02
GGGGGCACGTGCTGCA | -0.24
GGTGACACGTGTGGCG | 0.14
CTTGACACGTGTCGTG | -0.01
TCGTACACGTGTGGAT | 0.16
GGGTTCACGTGAGCCG | 0.36
GCATGCACGTGGAGGA | 0.11
GTTAGCACGTGGTTGA | -0.16
GGCTGCACGTGTGTTT | 0.18
TGAGCCACGTGTGTGT | -0.11
GGTGGCACGTGGCCTG | -0.17
TGGCACACGTGGGATT | 0.03
CTAGTCACGTGTTTAT | 0.07
TTTCACACGTGTTAGG | 0.09
AGGGGCACGTGCGTTG | -0.25
AGAGACACGTGTTTGG | 0.06
AGTATCACGTGGAGTG | 0.24
GTAGTCACGTGTGTAA | 0.04

Sequence | relative binding free energy [kcal/mol]
ATGATCACGTGGGGTC | -0.05
TTCTACACGTGATTAT | 0.35
ATGAACACGTGGGGTG | -0.13
TTGGGCACGTGGTCTA | -0.22
AGGCGCACGTGTATGT | -0.11
TATTTCACGTGGTGGC | 0.28
TTGATCACGTGTGCGG | 0.21
TAATTCACGTGGGTCG | 0.04
GAGTGCACGTGGGGTT | -0.12
TGAAGCACGTGATGGG | 0.12
CGCAGCACGTGGTGGA | -0.07
TGGTGCACGTGAGTAG | 0.14
GGTAACACGTGTAGTT | 0.02
AGTTACACGTGTATAG | 0.13
CGGGCCACGTGTAGGG | -0.01
CTGTGCACGTGGGTAT | -0.12
ATCGGCACGTGGTATA | -0.14
AAGTACACGTGATTGT | 0.21
GTTGCCACGTGGGGTG | -0.11
AGTAGCACGTGTTGTC | -0.1
AGTTACACGTGGGTAG | -0.15
CTAGTCACGTGGGGTA | 0.02
TTGGTCACGTGGATGA | 0.19

Sequence | relative binding free energy [kcal/mol]
AAGGTCACGTGGGTCT | 0.02
TGTATCACGTGGTCGT | -0.04
TGGATCACGTGGGATT | 0
TTGGGCACGTGCATAT | -0.26
TTATACACGTGAGTGG | 0.22
TGCGTCACGTGTATTT | 0.08
TGCCACACGTGTGGGG | 0.12
ATTTGCACGTGTGATA | 0.08
GGCTGCACGTGGGGTG | -0.15
TTGAGCACGTGTTCAT | -0.11
TGTATCACGTGATTGA | 0.28
GGGTTCACGTGATCAT | 0.38
GGGGTCACGTGCAGGG | 0.18
AGGAGCACGTGCTTGG | -0.2
ACGGGCACGTGGGGGC | -0.3
TGCGGCACGTGTCTGT | -0.17
GGCGGCACGTGCTCGG | -0.07
AATTTCACGTGCTAGG | 0.24
CGGTTCACGTGTAGGG | 0.25
GGGACCACGTGAGGAT | 0.65
GTTGGCACGTGTTATC | -0.02
CTTGCCACGTGGGGGA | -0.3
ATATGCACGTGTTCTT | -0.21

Sequence | relative binding free energy [kcal/mol]
TTGAACACGTGGGTTA | -0.05
TAAGGCACGTGGTTAC | -0.07
AGAGGCACGTGCTGTG | -0.19
TGTGCCACGTGACGTG | 0.04
TGCATCACGTGTTGGT | 0.14
TTTAGCACGTGCGGAT | -0.05
GAGAACACGTGAGGGG | 0.42
AGTATCACGTGTTAGA | 0.19
TTAGACACGTGGGATG | -0.15
GGTCGCACGTGAGCGT | 0.27
TTTGCCACGTGTAATT | -0.04
ATTCGCACGTGGGAGT | -0.13
CGTATCACGTGTGGCT | 0.18
CTGATCACGTGAAGTT | 0.27
CTTTTCACGTGTGCGT | 0.32
TGGTCCACGTGGGGTA | -0.23
TAAGTCACGTGGTGTC | 0.14
AAGGTCACGTGATTAG | 0.3
TCATGCACGTGGTGGT | -0.07
ACTTTCACGTGAGGTT | 0.49
TAGTACACGTGGGCGT | -0.06
CGTTGCACGTGGTTTC | 0.01
GCTTGCACGTGGACGT | 0.23

Sequence | relative binding free energy [kcal/mol]
AGAGTCACGTGTTAAA | 0.18
CGGTGCACGTGGCTTT | -0.07
CGTATCACGTGGAGGT | 0.08
AATAGCACGTGTTGGA | -0.11
GCCTTCACGTGTTGTG | 0.3
TACAGCACGTGTTGTG | -0.11
ATTAACACGTGGGGAA | -0.15
AATTCCACGTGTTGTG | -0.06
GGGGGCACGTGCCGTA | -0.06
GGTGTCACGTGTAGGG | 0.09
GTGAGCACGTGGGTGC | -0.16
AAGAGCACGTGGTGTT | -0.27
TAGAGCACGTGATTGG | -0.03
GAGGGCACGTGTAGAG | -0.04
GGAGTCACGTGATAAT | 0.4
TTTGCCACGTGTTCGT | -0.12
GGATTCACGTGCAGTT | 0.27
TGTTCCACGTGGGTTA | -0.11
GGGTTCACGTGAGCGG | 0.39
TCGGGCACGTGAGGCT | 0.08
AGGGGCACGTGTGGGG | -0.01
CGATGCACGTGGGGAT | -0.05
ATGTGCACGTGGGACT | -0.2
